Measurements reported in patent publication US20230348362A1, “LIPID COMPOUNDS AND LIPID NANOPARTICLE COMPOSITIONS” (Suzhou Abogen Biosciences Co., Ltd., priority 2021, published 2023).
The name of at least one read-out is uncertain. Some compounds share one wording; it may come from a single statement.

These molecules were tested on human erythropoietin (hEPO) mRNA (assay: Animal study: hEPO mRNA LNP tail vein injection, serum hEPO ELISA). Details: female ICR mice, 0.5 mg/kg tail vein injection, blood sampled e.g. 6 hours, relative to MC3 LNP.
Assay type: in vivo

Compound	Expression over MC3
CCCCCCCCCCCOC(=O)CCCCCN(CCN(CCO)CCCCCCC(=O)OCC(CCCCCCCC)CCCCCCCC)C1CCCCC1 [Compound 43]	A (≥2)
CCCCCCCCCCCOC(=O)CCCCCN(CCN(CCO)CCCCCC(=O)NCC(CCCCCCCC)CCCCCCCC)C1CCCCC1 [Compound 44]	A (≥2)
CCCCCCCCCCCOC(=O)CCCCCN(CCO)CCN(CCCCCC(=O)OCC(CCCCCCCC)CCCCCCCC)C1CCCCC1 [Compound 45]	A (≥2)
CCCCCCCCCCCOC(=O)CCCCCN(CCN(CCO)CCCCCC(=O)C(CCCCCC)CCCCCCCCC)C1CCCCC1 (centres unmarked) [Compound 46]	A (≥2)
CCCCCCCCCCCOC(=O)CCCCCN(CCN(CCO)CCCCCC(=O)OCC(CCCCCCCCCC)CCCCCCCCCC)C1CCCCC1 [Compound 47]	A (≥2)
CCCCCCCCCCCOC(=O)CCCCCN(CCN(CCO)CCCCCCCC(=O)OCC(CCCCCCCC)CCCCCCCC)C1CCCCC1 [Compound 48]	A (≥2)
CCCCCCCCCCCOC(=O)CCCCCN(CCN(CCO)CCCCCC(=O)OCC(CCCCCCCC)CCCCCCCC)C1CCC(F)(F)CC1 [Compound 49]	C (≥0.1 and <1)
CCCCCCCCCCCOC(=O)CCCCCN(CCN(CCO)CCCCCC(=O)OCC(CCCCCCCC)CCCCCCCC)C1CC(F)(F)C1 [Compound 50]	C (≥0.1 and <1)
CCCCCCCCC(CCCCCCCC)COC(=O)CCCCCN(C)CCN(CCCCCC(=O)OCC(CCCCCCCC)CCCCCCCC)C1CCC(O)CC1 (centres unmarked) [Compound 51]	C (≥0.1 and <1)
CCCCCCCCC(CCCCCCCC)COC(=O)CCCCCN(CCC)CCN(CCCCCC(=O)OCC(CCCCCCCC)CCCCCCCC)C1CCC(O)CC1 (centres unmarked) [Compound 52]	B (≥1 and <2)
CCCCCCCCC(CCCCCCCC)COC(=O)CCCCCN(CCCCCC)CCN(CCCCCC(=O)OCC(CCCCCCCC)CCCCCCCC)C1CCC(O)CC1 (centres unmarked) [Compound 53]	C (≥0.1 and <1)
CCCCCCCCCCCOC(=O)CCCCCN(CCN(CCO)CCCCCC(=O)OCC(CCCCCCCC)CCCCCCCC)C1CC(OC)C1 (centres unmarked) [Compound 54]	D (<0.1)
CCCCCCCCC(CCCCCCCC)COC(=O)CCCCCN(CCN(CCCCCC(=O)OCC(CCCCCCCC)CCCCCCCC)C1CCC(O)CC1)C1CCC1 (centres unmarked) [Compound 55]	B (≥1 and <2)
CCCCCCCCC(CCCCCCCC)COC(=O)CCCCCN(CCO)CCN(CCCCCC(=O)OCC(CCCCCCCC)CCCCCCCC)Cc1ccc(O)cc1 [Compound 56]	C (≥0.1 and <1)
CCCCCCCCCCCC(=O)OCCCCCN(CCN(CCO)CCCCCOC(=O)CC(CCCCCCCC)CCCCCCCC)C1CCCCC1 [Compound 57]	B (≥1 and <2)
CCCCCCCCCCCC(=O)NCCCCCN(CCN(CCO)CCCCCNC(=O)CC(CCCCCCCC)CCCCCCCC)C1CCCCC1 [Compound 58]	B (≥1 and <2)
CCCCCCCCCCCC(=O)OCCCCCN(CCN(CCO)CCCCCNC(=O)CC(CCCCCCCC)CCCCCCCC)C1CCCCC1 [Compound 59]	A (≥2)
CCCCCCCCC(CCCCCCCC)CC(=O)NCCCCCN(CCO)CCN(CCCCCNC(=O)CC(CCCCCCCC)CCCCCCCC)C1CCC1 [Compound 60]	C (≥0.1 and <1)
CCCCCCCCC(CCCCCCCC)CC(=O)NCCCCCN(CCN(CCO)CCCCCOC(=O)CC(CCCCCCCC)CCCCCCCC)C1CCC1 [Compound 61]	A (≥2)

Compound	Expression over MC3
CCCCCCCCC(CCCCCCCC)CC(=O)OCCCCCN(CCO)CCN(CCCCCOC(=O)CC(CCCCCCCC)CCCCCCCC)C1CCC1 [Compound 62]	A (≥2)
CCCCCCCCC(CCCCCCCC)COC(=O)/C=C/CN(CCO)CCN(CCCCCC(=O)OCC(CCCCCCCC)CCCCCCCC)C1CCC1 [Compound 63]	C (≥0.1 and <1)
CCCCCCCCC(CCCCCCCC)COC(=O)CCCCCN(C)C1CCC(N(CCO)CCCCCC(=O)OCC(CCCCCCCC)CCCCCCCC)CC1 (centres unmarked) [Compound 64]	D (<0.1)
CCCCCCCCC(CCCCCCCC)COC(=O)CCCCCN(C/C=C/CN(CCCCCC(=O)OCC(CCCCCCCC)CCCCCCCC)C1CCC1)CCO [Compound 65]	C (≥0.1 and <1)
CCCCCCCCC(CCCCCCCC)COC(=O)CCCCCN(CCO)CCN(CCCCCC(=O)OCC(CCCCCCCC)CCCCCCCC)C1CCC(F)(F)CC1 [Compound 66]	C (≥0.1 and <1)
CCCCCCCCC(CCCCCCCC)COC(=O)CCCCCN(CCO)CCN(CCCCCC(=O)OCC(CCCCCCCC)CCCCCCCC)C1CC(OC)C1 (centres unmarked) [Compound 67]	B (≥1 and <2)
CCCCCCCCC(CCCCCC)C(=O)OCCCCCCN(CCO)CCN(CCCCCCOC(=O)C(CCCCCC)CCCCCCCC)C1CCC1 (centres unmarked) [Compound 69]	C (≥0.1 and <1)
CCCCCCCCC(CCCCCCCC)CC(=O)NCCCCCN(CCN(CCO)CCCCCCOC(=O)C(CCCCCC)CCCCCCCC)C1CCC1 (centres unmarked) [Compound 70]	B (≥1 and <2)
CCCCCCCC(=O)OCC(CCCCN(CCO)CCN(CCCCC(COC(=O)CCCCCCC)COC(=O)CCCCCCC)C1CCC1)COC(=O)CCCCCCC [Compound 71]	A (≥2)
CCCCCCCCC(CCCCCCCC)CC(=O)NCCCCCN(CCN(CCO)CCCCCOC(=O)CC(CCCCCCCC)CCCCCCCC)C1CCCC1 [Compound 72]	A (≥2)
CCCCCCCCC(CCCCCCCC)CC(=O)NCCCCCN(CCN(CCO)CCCCCOC(=O)CC(CCCCCCCC)CCCCCCCC)C1CCCCC1 [Compound 73]	A (≥2)
CCCCCCCCC(CCCCCCCC)CC(=O)NCCCCCN(CCN(CCO)CCCCCOC(=O)CC(CCCCCCCC)CCCCCCCC)C1CCCCCC1 [Compound 74]	A (≥2)
CCCCCCCCC(CCCCCCCC)CC(=O)NCCCCCN(CCN(CCO)CCCCCOC(=O)CC(CCCCCCCC)CCCCCCCC)C1CCCCCCC1 [Compound 75]	A (≥2)
CCCCCCCCC(CCCCCCCC)CNC(=O)CCCCCN(CCN(CCCO)CCCCCC(=O)OCC(CCCCCCCC)CCCCCCCC)C1CCC1 [Compound 76]	C (≥0.1 and <1)
CCCCCCCCC(CCCCCCCC)CNC(=O)CCCCCN(CCN(CCCCO)CCCCCC(=O)OCC(CCCCCCCC)CCCCCCCC)C1CCC1 [Compound 77]	A (≥2)
CCCCCCCCC(CCCCCCCC)CNC(=O)CCCCCN(CCN(CCCCCCCCCO)CCCCCC(=O)OCC(CCCCCCCC)CCCCCCCC)C1CCC1 [Compound 78]	D (<0.1)
CCCCCCCCC(CCCCCCCC)COC(=O)CCCCCN(C)CCN(CCCCCC(=O)OCC(CCCCCCCC)CCCCCCCC)CCNc1c(NC)c(=O)c1=O [Compound 79]	C (≥0.1 and <1)
CCCCCCCCC(CCCCCCCC)COC(=O)CCCCCN(CCNc1c(NC)c(=O)c1=O)CCN(CCCCCC(=O)OCC(CCCCCCCC)CCCCCCCC)C1CCC1 [Compound 81]	C (≥0.1 and <1)
CCCCCCCCCCCOC(=O)CCCCCN(CCN(CCCCCC(=O)OCC(CCCCCCCC)CCCCCCCC)CCNc1c(NC)c(=O)c1=O)C1CCC1 [Compound 82]	D (<0.1)

Compound	Expression over MC3
CCCCCCCCC(CCCCCCCC)COC(=O)CCCCCN(CCO)CCN(CCCCCOC(=O)CCCCCC(CCCCCC)CCCCCC)C1CCC1 [Compound 83]	B (≥1 and <2)
CCCCCCCCC(CCCCCCCC)COC(=O)CCCCCN(CCO)CCN(CCCCCCOC(=O)C(CCCCCCCC)CCCCCCCC)C1CCC1 [Compound 84]	C (≥0.1 and <1)
CCCCCCCCC(CCCCCCCC)COC(=O)CCCCCN(CCNc1c(N(C)C)c(=O)c1=O)CCN(CCCCCC(=O)OCC(CCCCCCCC)CCCCCCCC)C1CCC1 [Compound 85]	C (≥0.1 and <1)
CCCCCCCCC(CCCCCCCC)COC(=O)CCCCCN(CCO)CCCCN(CCCCCC(=O)OCC(CCCCCCCC)CCCCCCCC)C1CCC1 [Compound 86]	A (≥2)
CCCCCCCCC(CCCCCCCC)COC(=O)CCCCCN(CCO)CCN(CCCCCOC(=O)CCCCC=C(CCCCCC)CCCCCC)C1CCC1 [Compound 87]	C (≥0.1 and <1)
CCCCCCCCC(CCCCCCCC)COC(=O)CCCCCN(CCO)Cc1ccc(CN(CCCCCC(=O)OCC(CCCCCCCC)CCCCCCCC)C2CCC2)cc1 [Compound 88]	D (<0.1)
CCCCCCCCCCCCCCN(CCCCCCCCCCCCCC)C(=O)CCCCCN(CCO)CCN(CCCCCC(=O)OCCCCCCCCCCC)C1CCCCC1 [Compound 89]	C (≥0.1 and <1)
CCCCCCCCCCCOC(=O)CCCCCN(CCN(CCO)CCCCCC(=O)N(CCCCCCCC)CCCCCCCC)C1CCCCC1 [Compound 90]	C (≥0.1 and <1)
CCCCCCCCCCCC(=O)OCCCCCN(CCN(CCO)CCCCCOC(=O)CC(CCCCCCCC)CCCCCCCC)C1CC1 [Compound 91]	D (<0.1)
CCCCCCCCCCCC(=O)OCCCCCN(CCN(CCO)CCCCCOC(=O)CC(CCCCCCCC)CCCCCCCC)C1CCC1 [Compound 92]	C (≥0.1 and <1)
CCCCCCCCCCCC(=O)OCCCCCN(CCN(CCO)CCCCCOC(=O)CC(CCCCCCCC)CCCCCCCC)C1CCCC1 [Compound 93]	C (≥0.1 and <1)
CCCCCCCCCCCC(=O)OCCCCCN(CCN(CCO)CCCCCOC(=O)CC(CCCCCCCC)CCCCCCCC)C1CCCCCC1 [Compound 94]	C (≥0.1 and <1)
CCCCCCCCCCCC(=O)OCCCCCN(CCN(CCO)CCCCCOC(=O)CC(CCCCCCCC)CCCCCCCC)C1CCCCCCC1 [Compound 95]	C (≥0.1 and <1)
CCCCCCCCC(CCCCCCCC)CNC(=O)CCCCCN(CCNc1c(NC)c(=O)c1=O)CCN(C)CCCCCC(=O)OCC(CCCCCCCC)CCCCCCCC [Compound 96]	C (≥0.1 and <1)
CCCCCCCCCCCC(=O)OCCCCCN(CCN(CCO)CCOCCOC(=O)CC(CCCCCCCC)CCCCCCCC)C1CCC1 [Compound 97]	C (≥0.1 and <1)
CCCCCCCCCCCC(=O)OCCCCCN(CCN(CCO)CCOCCOC(=O)CC(CCCCCCCC)CCCCCCCC)C1CCCCC1 [Compound 98]	B (≥1 and <2)
CCCCCCCCCCCOC(=O)CCCCCN(CCN(CCO)CCCCCOC(=O)N(CCCCCCCC)CCCCCCCC)C1CCCCC1 [Compound 99]	A (≥2)
CCCCCCCCCCCOC(=O)CCCCCN(CCN(CCO)CCCCCNP(=O)(OCCCCCCCCC)OCCCCCCCCC)C1CCCCC1 [Compound 100]	C (≥0.1 and <1)
